Results: the supplement of paper PMC3334620
Over roughly 33,000 sequences, “E-score (-0.5 to 0.5)” has its median near -0.013; the highest 2% begin near 0.3. Some of the results follow.

Target: T1, Msn1 (UniProt P22148)
T1 sequence: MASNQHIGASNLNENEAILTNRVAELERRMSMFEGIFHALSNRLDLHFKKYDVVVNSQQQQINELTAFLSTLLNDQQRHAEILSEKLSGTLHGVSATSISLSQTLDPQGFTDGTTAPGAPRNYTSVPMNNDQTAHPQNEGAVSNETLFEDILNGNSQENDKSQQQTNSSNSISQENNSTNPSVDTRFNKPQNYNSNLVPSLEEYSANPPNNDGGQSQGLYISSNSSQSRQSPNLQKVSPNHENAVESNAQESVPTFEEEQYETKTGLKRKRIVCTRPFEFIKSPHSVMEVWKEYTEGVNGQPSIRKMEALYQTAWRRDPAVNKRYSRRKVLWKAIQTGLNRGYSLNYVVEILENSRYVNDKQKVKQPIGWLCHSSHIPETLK
Assay: PBM E-score (8-mer binding enrichment) (E-score (-0.5 to 0.5)); higher = stronger / more preferred TF binding; most listed sequences are background and not binding sites
Conditions: protein concentration: 200 nM; construct: GST-full length
Description: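 Universal 'all 10-mer' protein binding microarrays (Agilent AMADID 015681) probed with GST-tagged S. cerevisiae TFs (full-length or DBD) made by in vitro transcription/translation (PURExpress), about 100-200 nM. Bound TF was detected with fluorescent anti-GST. Each ungapped 8-mer (which stands for itself and its reverse complement) is scored by the PBM enrichment score (E-score), a modified Wilcoxon-Mann-Whitney statistic from -0.5 to +0.5, computed with the Universal PBM Analysis Suite. Scale: above 0.35 generally sequence-specific binding.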

Sequence	PBM E-score
AACACTAG	-0.0154
GCGACTTA	0.0387
ACACGCTA	-0.0722
CGATAAAG	0.119
CTCCGTAC	0.0569
AGTCATGA	0.0582
ACGCCGGG	-0.126
AGATCATG	-0.0829
ACCCAGCT	-0.326
AGGTCACC	-0.0357
GACGTAGA	-0.0822
CAATGTAG	-0.109
AGCCAGAG	0.0446
AATAATAC	0.207
CCTGTCTC	-0.0622
AAGTGCAC	0.0628
GTGTACAC	0.162
TACAGGCA	-0.0524
CGTGTTAC	-0.216
AGGGCATA	-0.16
GTGAGTAA	-0.112
ACCGGGGG	-0.398
GTCCTAAA	0.365
ACGTCGCC	-0.0749
ATTAAATC	0.187

Sequence	PBM E-score
ATTGATTA	0.133
GTATAATA	0.186
AGTAGGGC	-0.042
CCACCAGG	-0.372
ACCCTTTG	-0.292
CGTTTTAC	-0.0418
CTATAAAC	0.0886
CTACGCCC	-0.291
AACGGGAT	-0.0965
TAGTTCGA	0.043
TCCAACGA	0.082
ACCGAAAC	0.0554
CTAGATTA	0.143
CAGTACGA	0.0277
CTTAGGGC	-0.0053
GCGCGAAC	0.0676
CAAAGTCG	0.137
AGTGGTAG	-0.15
ATTGTGCC	-0.158
ATGGTAGG	-0.142
GTATGGGA	-0.0805
GGATCTCA	0.00437
AATGCGGC	-0.0477
CGTGATAC	-0.199
CCTCCCTC	-0.0838

Sequence	PBM E-score
GCAACTCC	-0.225
GAACCCAA	-0.0337
ATCAGATG	0.00659
ATTTGACG	0.15
GAAATTGC	-0.0414
GGTTACAC	-0.0806
AAACCACG	0.0703
CCCGAGAC	0.135
CATATCGC	0.184
GGGGGAAC	-0.456
ACCTGCAC	-0.15
GTAGGTCA	-0.128
CGGTGGTA	-0.0616
GCCAATCA	-0.169
GAGGCAGC	-0.23
GAGTTGGA	0.0198
GACATCCA	0.219
ACAGAGAC	0.203
CGCTAAGC	0.175
AGGACTGA	0.0132
AGTCATTA	-0.0095
ACACTCGC	0.166
GCAGGCAA	-0.042
CTATCTAA	0.00202
CGATGCAC	-0.295

Sequence	PBM E-score
CAACCGCG	0.227
AACAAGAT	0.181
AGTCCAGG	-0.162
AGGGTTAC	-0.162
CGGCCCCG	-0.287
AAATCAAT	0.0903
AGAACGGG	-0.116
CTGAAAAA	0.0323
CCTTATTC	-0.086
ACACCGCC	-0.0808
ACAACGTA	0.0255
CACTCTAG	-0.175
CCCGGAGG	-0.202
GATCACAC	-0.161
AGGGTTTC	-0.168
GCTGTCAC	-0.0879
CGGTTCCA	-0.0949
ACTTAGGC	-0.0738
ACCCCGTC	-0.286
CTGCCAAC	-0.106
GCTCTGAC	-0.045
ACCACATG	-0.0942
CCGGAACA	0.236
GGCCCAAC	-0.143
TAAATGAA	0.253

Sequence	PBM E-score
AAAGTCAA	0.176
ACGGCCAG	-0.0582
AGTTAAAC	-0.0331
AACCATGC	-0.00545
CGCCTCCA	-0.233
ATCACTGC	0.0298
GTCTGTAA	0.127
TCACTGGA	-0.0157
GAACGATC	-0.00246
CTACCCGC	-0.167
CCTCCCGA	-0.207
CATTCTGA	0.0627
GGATGGAC	0.178
ACAGTTCA	0.114
CACCCTAA	-0.141
GCGCTCAA	-0.1
ACCTACAA	0.0435
GAAATTCC	-0.012
ATGGTAAG	-0.14
CTCGACTC	-0.132
CCCATTGC	-0.178
GCGGACGC	-0.0105
TATCAGGA	0.139
ACAGGTAC	0.0432
CAAACATC	0.169

Sequence	PBM E-score
AAATAGTT	0.115
AACGCGCC	-0.0708
AGACGATA	0.131
AATGCGGA	0.114
GGGCTGTA	-0.173
TACCGGTA	-0.197
ATGTGACC	0.0331
ATGAGAGA	0.00401
AACCAAGT	0.0857
CTGAGTCA	0.0364
AAGCAGGA	0.0601
CCATATGG	-0.0842
TCTGCCAA	-0.00391
GGCCTTAA	0.0617
CGACTGGA	-0.136
GGTCCCAA	-0.183
CATACCGA	0.0453
CCCCCAGC	-0.337
AACCGAAA	0.139
AAGACTTA	0.0625
AGTCTGCC	-0.0704
AGACCTGC	-0.0719
AATCATCT	-0.161
CCTGGTCA	-0.0283
AGATCGTG	0.00482

Sequence	PBM E-score
AAGGCCCA	-0.246
CACGCATG	0.0332
TTCTGCAA	-0.0673
ATATGCTC	0.0594
ATACGCAT	0.0734
ACCTATCA	-0.00035
CTATACGA	0.0459
CACGGCGG	-0.178
AAGATAAG	-0.00092
ACCTAGTA	-0.0332
AGAATGCA	0.0198
CGGCATGC	0.0592
GTTAGCTA	-0.171
GCAGACAC	0.203
ATCAAATG	0.0888
CCGGAATA	0.172
GTTAAGCA	0.0312
GCGGGGAC	0.15
GTGGTTAA	0.048
CGTCGTGC	0.117
AGGTATAA	0.016
AATGTAAA	0.129
